# Experimental data reported in PubChem BioAssay AID1434 (Sanford-Burnham Center for Chemical Genomics, 2008).
# This is one part of the list. These are further read-outs of the screen, such as a control signal, another cell line or another target. No call is given for them. Compounds called inactive in the main read-out are mostly missing here.
# Target: Runt-related transcription factor 1 (Homo sapiens) + Core-binding factor subunit beta (Homo sapiens) (UniProt Q01196+Q13951)
# Experiment: disruptors of Runt domain/CBFb-SMMHC interaction – biochemical, FRET, Cerulean-Runt, Venus-CBFb-SMMHC, uHTS, primary screen (AID 1434);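 also: 0% = DMSO wells and 100% = wells with excess untagged CBFb-SMMHC; inhibitors lower the FRET ratio by blocking Runt binding to CBFb-SMMHC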
# Conditions: Cerulean-Runt/Venus-CBFb-SMMHC FRET ratio 530/480, 1 h; retest duplicate average; at 20 µM; stronger effect = higher value
# Chain of UniProt Q01196 (Q01196 whole entry, looked up, the tested form may be a part): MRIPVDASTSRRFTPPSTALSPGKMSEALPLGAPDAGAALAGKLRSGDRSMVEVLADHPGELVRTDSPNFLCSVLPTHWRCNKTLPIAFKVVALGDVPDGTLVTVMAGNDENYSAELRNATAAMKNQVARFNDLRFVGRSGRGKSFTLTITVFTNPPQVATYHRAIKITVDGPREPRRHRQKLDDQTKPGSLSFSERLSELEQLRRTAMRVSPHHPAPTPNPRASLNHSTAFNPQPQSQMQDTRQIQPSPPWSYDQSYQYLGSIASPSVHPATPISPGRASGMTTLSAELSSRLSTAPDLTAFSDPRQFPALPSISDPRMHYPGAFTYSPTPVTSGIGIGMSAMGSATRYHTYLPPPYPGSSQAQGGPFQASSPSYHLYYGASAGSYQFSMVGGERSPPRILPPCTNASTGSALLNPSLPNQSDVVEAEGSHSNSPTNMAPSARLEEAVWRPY
# Chain of UniProt Q01196 (Q13951 whole entry, looked up, the tested form may be a part): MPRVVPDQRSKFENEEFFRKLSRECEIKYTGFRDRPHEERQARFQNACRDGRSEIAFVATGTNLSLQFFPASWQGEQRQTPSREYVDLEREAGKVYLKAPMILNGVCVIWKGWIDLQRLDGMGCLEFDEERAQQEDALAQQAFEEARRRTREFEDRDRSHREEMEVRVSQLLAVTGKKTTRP
row,Compound,inhibition [%]
1,CC(C)N1CCc2c(sc(NC(=O)CN3C(=O)c4ccccc4C3=O)c2C(N)=O)C1,152
2,Cc1cccn2c(=O)c3cc(S(=O)(=O)c4ccccc4)c(=N)n(CC4CCCO4)c3nc12 (configuration not stated),70.6
3,CCOC(=O)c1cc2c(ccc3ccccc32)oc1=O,70.6
4,CC(=O)Nc1ccc(N2CCc3c(C)c(C#N)c4nc5ccccc5n4c32)cc1,71.5
5,CC(=O)c1c(N2CCN(c3ccccn3)CC2)nc(=S)n(-c2ccccc2)c1C,156
6,Cc1cccn2c(=O)c(/C=C(\C#N)C(=O)NCc3ccccc3)c(N3CCC(C(N)=O)CC3)nc12,87.9
7,Cc1c2c(n3c(nc4ccccc43)c1C#N)N(c1ccccc1)CC2,71.5
8,COc1cc(OC)c(C2CC(=O)N3CN(c4ccc(C)cc4)CSC3=C2C#N)cc1OC (configuration not stated),170
9,Cc1cccn2c(=O)c3cc(C#N)c(=N)n(Cc4ccncc4)c3nc12,171
10,CCOC(=O)c1c(N)n(CCOC(=O)c2cccs2)c2nc3ccccc3nc12,118
11,CCN1CCc2c(sc(NC(=O)CN3C(=O)c4ccccc4C3=O)c2C(N)=O)C1,122
12,Nc1cccc2c1C(=O)N(C(=O)c1cccc(S(=O)(=O)N3CCCC3)c1)C2=O,72.9
13,Cc1cc(C)c2c(N)c(C(=O)c3cccc(Cl)c3)sc2n1,59.7
14,C=CCn1c(=N)c(C(=O)NCCCOC)cc2c(=O)n3cc(C)ccc3nc21,72.9
15,N#C/C(=C/c1ccc(-c2cc(C(=O)O)cc(C(=O)O)c2)o1)c1nc2ccccc2s1,68.1
16,COc1ccc(CCn2c(N)c(C(=O)NCc3ccco3)c3nc4ccccc4nc32)cc1,141
17,COc1c(O)ccc(/C=C(\C#N)c2nc3ccccc3[nH]2)c1[N+](=O)[O-],95.5
18,CCOC(=O)c1cc2c(=O)n3ccccc3nc2n(C(C)C)c1=NC(=O)c1c(-c2ccccc2Cl)noc1C,71.5
19,CCOC(=O)c1cc2c(=O)n3ccccc3nc2n(CCOC)c1=NC(=O)c1ccncc1,97.6
20,Cc1cc(C)c2c(n1)nn1c(NCCOCCO)cc(C)nc21,72
21,COC(=O)C1=CN(CC2CCCO2)C=C(C(=O)OC)C1c1ccccc1C(F)(F)F (configuration not stated),97.6
22,Cc1[nH]n(-c2ccccc2)c(=S)c1C=Nc1ccc([N+](=O)[O-])cc1,54
23,CCN(CC)c1ccc2cc(-c3nnc(-c4ccccc4)o3)c(=O)oc2c1,71.5
24,CCOCCCn1c(=NC(=O)c2ccc(OC)c(OC)c2)c(C#N)cc2c(=O)n3cccc(C)c3nc21,166
25,CCOC(=O)CC(=O)CSc1nc2c(cc1C#N)CCCCCC2,56.8
26,COC(=O)C1=C(C)NC2=C(C(=O)CC(C)(C)C2)C1c1cccc(C)n1 (configuration not stated),83.5

row,Compound,inhibition [%]
1,CCN(CC)c1ccc2cc(C(N)=O)c(=N)oc2c1,70.6
2,CCn1c(=N)c(S(=O)(=O)c2ccccc2)cc2c(=O)n3ccccc3nc21,70.6
3,CCc1cc2c(CN3CCN(CC)CC3)cc(=O)oc2cc1O,72.9
4,Cc1cc(=O)oc2cc(NS(=O)(=O)c3ccc(F)cc3)ccc12,72.9
5,COCCCNc1nc2nonc2nc1N1CCN(Cc2cccc(C)c2)CC1,98.3
6,O=C1NC(=S)S/C1=C1\Sc2ccccc2N1CCCS(=O)(=O)O,129
7,C=CCOc1c(Br)cc(C2C3=C(CCCC3=O)N(C)C3=C2C(=O)CCC3)cc1OCC,71.5
8,CCN1CC=C2C(C1)C(c1ccc(Cl)s1)C(C#N)=C(N)C2(C#N)C#N (configuration not stated),86.8
9,CN1CCc2c(sc3c2C(=O)NC(c2ccccn2)N3)C1 (configuration not stated),72.9
10,CCCCCn1c(NC(=O)c2ccco2)c(S(=O)(=O)c2ccc(C)cc2)c2nc3ccccc3nc21,155
11,CCc1cc(=O)oc2c(C)c(O)c(CN3CCCCC3)cc12,124
12,CC1=NOC(=O)/C1=C\c1ccc(-c2cccc(Cl)c2)o1,57.9
13,COCCOC(=O)c1c(N)n(CCCN2CCOCC2)c2nc3ccccc3nc12,100
14,CC1=C(C(=O)OCC2CCCO2)C(c2ccncc2)C2=C(CC(C)(C)CC2=O)N1 (configuration not stated),99.4
15,Cc1cccc(NC(=O)CN2C(=O)N/C(=C\c3ccc(-c4cccc(C(=O)O)c4)o3)C2=O)c1,116
16,Nc1nc2nc(-c3ccc(OCc4ccccc4)cc3)cc(C(F)(F)F)n2n1,108
17,COc1ccc(S(=O)(=O)N(C(=O)C(C)C)c2ccc3oc(=O)sc3c2)cc1,52.9
18,Cc1cc(C)c2c(n1)nn1c(NCCCN(C)C)cc(C)nc21,64
19,Cc1ccc(C2C3=C(CC(C)(C)CC3=O)Nc3[nH]c(=S)[nH]c(=O)c32)cc1 (configuration not stated),60.4
20,CCN1C(=C(C#N)C#N)C=Cc2cc(C)ccc21,70.6
21,CC1CCc2c(sc(Nc3nc4c(F)cccc4s3)c2C(N)=O)C1 (configuration not stated),166
22,COc1ccc2cc(-c3nc4ccccc4n3C)c(=O)oc2c1,130
23,CS(=O)(=O)c1nsc2nc(=O)c(/C=C3\C=Nc4ccccc43)c(N)n12,80.2
24,Nc1ccccc1-c1nc2ccccc2s1,100
25,COc1ccc2nc3c(cc2c1)c(NC(=O)C1CCCO1)nn3CC(C)C (configuration not stated),72.9
26,CN1CC=C2C(C#N)=C(N)C(C#N)(C#N)C(c3ccsc3)C2C1 (configuration not stated),72.9

row,Compound,inhibition [%]
1,O=C(N/N=C/c1c(O)n(Cc2ccccc2)c(=O)c2ccccc12)c1cccnc1,70.6
2,O=C(O)c1cccc(S(=O)(=O)Nc2ccc3oc(=O)sc3c2)c1,55.1
3,COc1ccc(-n2c(N)c(C(=O)NCc3ccco3)c3nc4ccccc4nc32)c(OC)c1,106
4,CCCCn1c(=O)nc2n(-c3ccc(C)cc3)c3ccccc3cc-2c1=O,71.5
5,CCc1cc2c(=O)nc3n(c2s1)Cc1ccccc1/C3=C(/O)c1ccccc1Cl,72.9
6,COCCN(CCOC)c1cc(C)c(C#N)c2nc3ccccc3n12,71.5
7,COCCn1c(N)c(C#N)c2nc3ccccc3nc21,72.9
8,Cc1cc(=O)oc2c(CN3CCN(C)CC3)c(O)c(Cl)cc12,148
9,CCN(CC)c1ccc2cc(S(=O)(=O)c3ccc(Cl)cc3)c(=O)oc2c1,71.5
10,Cc1ccc(C)c(S(=O)(=O)c2c(N)n(/N=C/c3ccco3)c3nc4ccccc4nc23)c1,61.7
11,Cc1cccc(N2CCN(C(=O)Cn3sc4nc(C)cc(C)c4c3=O)CC2C)c1 (configuration not stated),55.5
12,COC(=O)C1=CNC=C(C(=O)OC)C1c1ccc(Cl)cc1,95.2
13,Cc1ccc(S(=O)(=O)Oc2ccc(C3C4=C(CCCC4=O)N(CCC(=O)O)C4=C3C(=O)CCC4)cc2Cl)cc1,71.5
14,O=C(Nc1cccc(C(F)(F)F)c1)c1cc2c(s1)-c1ccccc1OC2,89.1
15,O=C(Nc1ccc2nc(-c3cccs3)c(-c3cccs3)nc2c1)N1CCOCC1,71.5
16,Cc1c(-c2cccc(Cl)c2)nc2ccccc2c1C(=O)OC/C(O)=C(\C#N)c1nc2ccccc2[nH]1,67
17,CCOC(=O)c1cc2c(=O)n3cccc(C)c3nc2n(CCOC)c1=NC(C)=O,174
18,CC[C@H](C)/C=C(C)/C=C/C1=CC2=CC(=O)[C@]3(C)OC(=O)[C@@H](C(C)=O)[C@@H]3C2=CO1,70.6
19,COc1ccc2c(c1)O/C(=C\c1ccco1)C2=O,59.3
20,N#Cc1c(-c2ccc(F)cc2)c2c([nH]c1=O)-c1ccccc1OC2,70.6
21,c1ccc(-c2onc3cc4c(cc23)OCCO4)cc1,131
22,O=C(O)c1ccc(-c2ccc(/C=C3\NC(=O)N(Cc4ccc(Cl)cc4)C3=O)o2)cc1,108
23,COCCOC(=O)C1=C(C)NC2=C(C(=O)CC(C)(C)C2)C1c1cccnc1 (configuration not stated),111
24,Cc1cc(-n2c(C)cc(C(=O)CSc3ncnc4ccccc34)c2C)no1,101
25,CC(=O)Oc1ccc2cc(-c3ccccc3)c(=O)oc2c1,70.6
26,Cc1cc(NS(=O)(=O)c2ccc(NC(=O)c3cc4c(=O)n5ccccc5nc4s3)cc2)nc(C)n1,75.7

row,Compound,inhibition [%]
1,COCc1cc(=O)n2c([nH]c3ccccc32)c1C#N,57.5
2,O=C(Nc1sc2c(c1C(=O)NCc1ccco1)CCCC2)c1ccc2c(c1)OCO2,80.5
3,COc1ccc2nc(NCCNC(=S)NCCCN3CCOCC3)c(C#N)cc2c1,70.6
4,Clc1ccc2nc(N3CCNCC3)nc(-c3ccccc3)c2c1,72.9
5,Cc1ccc(CN2C(=O)N/C(=C/c3ccc(-c4ccc(C(=O)O)cc4)o3)C2=O)cc1,118
6,COc1ccc(CCn2c(=N)c(C(=O)N3CCN(C)CC3)cc3c(=O)n4ccccc4nc32)cc1,135
7,Cc1c(Cc2ccccc2)c(=O)oc2c(CN(C)C)c(O)c(Cl)cc12,157
8,O=C(CSc1ncnc2ccccc12)c1cccs1,103
9,Cc1ccc2nc3c(cc(C#N)c(=O)n3CCN3CCOCC3)c(=O)n2c1,157
10,COCCCNC(=S)NCCCNc1nc2cc(C)cc(C)c2cc1C#N,83.6
11,CC(=O)Nc1cccc(N/C=C(\C=O)c2nc3ccccc3o2)c1,70.5
12,CC(=Nc1cccc(C)c1)c1sc2ccccc2c1O,70.8
13,Nc1c2ccccc2nc2ccccc12,70.6
14,Cc1cc(C)c2c(n1)sc1c(-c3ccccc3)c(C#N)c(N)nc12,100
15,Cn1c(=N)c(S(=O)(=O)c2ccccc2)cc2c(=O)n3ccccc3nc21,71.5
16,COCCN1C=C(C(=O)OC)C(c2ccccc2Cl)C(C(=O)OC)=C1,70.8
17,OCCNc1c2ccccc2nc2c(F)c(F)c(F)c(F)c12,71.5
18,CCc1nnc(NC(=O)c2sc3nc4c(cc3c2N)CCCCC4)s1,67.8
19,Cc1cc(=O)oc2c(CN(C)Cc3ccccc3)c(O)ccc12,102
20,COC(=O)C1=CN(Cc2cccs2)C=C(C(=O)OC)C1c1cccc(O)c1,149
21,Cc1ccccc1-n1c2nc(=O)n(C)c(=O)c-2cc2ccccc21,70.6
22,Cc1ccccc1-n1c(O)c(/C=C/C=Nc2ccccc2)c(=O)[nH]c1=O,56
23,CSC(=S)N/N=C/c1ccc(N(C)C)cc1,79.7
24,CCn1c(C)c(C(C)=O)c(N2CCN(c3ccccn3)CC2)nc1=S,114
